Molecules are shown by their SMILES. Out of some 310,000 compounds screened, about 14,000 (4.5%) showed an effect of 50% or more. The effect is printed as a negative number. Some of the results follow.
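Further: peak tail current of the secondary pulse compared with the same well before compound.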

The test deals with human ether-à-go-go-related gene (hERG) potassium channel (human, UniProt Q12809). Description: primary screen, population patch clamp on CHO cells stably expressing hERG.
Chain of human ether-à-go-go-related gene (hERG) potassium channel (Q12809 whole entry, looked up): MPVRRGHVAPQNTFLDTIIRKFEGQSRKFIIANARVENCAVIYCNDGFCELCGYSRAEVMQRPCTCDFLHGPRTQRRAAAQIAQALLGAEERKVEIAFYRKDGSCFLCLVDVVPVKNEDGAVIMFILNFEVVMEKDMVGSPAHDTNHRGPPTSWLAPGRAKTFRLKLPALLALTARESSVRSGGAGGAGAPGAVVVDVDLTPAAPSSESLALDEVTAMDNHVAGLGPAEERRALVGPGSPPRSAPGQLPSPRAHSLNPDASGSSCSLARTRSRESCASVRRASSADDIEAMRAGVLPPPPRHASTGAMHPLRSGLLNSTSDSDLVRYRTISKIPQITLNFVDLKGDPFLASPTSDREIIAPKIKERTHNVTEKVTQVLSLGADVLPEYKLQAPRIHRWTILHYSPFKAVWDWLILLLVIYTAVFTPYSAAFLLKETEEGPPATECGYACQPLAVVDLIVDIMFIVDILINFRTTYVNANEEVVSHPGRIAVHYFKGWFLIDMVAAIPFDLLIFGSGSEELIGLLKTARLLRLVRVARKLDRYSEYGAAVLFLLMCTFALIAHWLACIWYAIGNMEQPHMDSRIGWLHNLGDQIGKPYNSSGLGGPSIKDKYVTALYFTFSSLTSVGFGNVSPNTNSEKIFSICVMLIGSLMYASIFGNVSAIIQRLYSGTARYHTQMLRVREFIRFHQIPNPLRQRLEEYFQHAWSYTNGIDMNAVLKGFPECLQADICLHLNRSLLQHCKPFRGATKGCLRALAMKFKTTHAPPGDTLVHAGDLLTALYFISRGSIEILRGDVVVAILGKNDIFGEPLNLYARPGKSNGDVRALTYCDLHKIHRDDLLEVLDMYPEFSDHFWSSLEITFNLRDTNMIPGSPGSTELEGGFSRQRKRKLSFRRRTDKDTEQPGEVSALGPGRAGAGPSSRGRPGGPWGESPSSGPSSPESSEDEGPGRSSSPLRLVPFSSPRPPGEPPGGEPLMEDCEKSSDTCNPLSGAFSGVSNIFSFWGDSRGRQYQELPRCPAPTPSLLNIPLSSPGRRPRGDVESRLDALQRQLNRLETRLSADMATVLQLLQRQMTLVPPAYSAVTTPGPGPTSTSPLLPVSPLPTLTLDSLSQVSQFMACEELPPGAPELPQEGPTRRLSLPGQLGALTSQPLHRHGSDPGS
For the molecule `Cc1cc(C(=O)CSc2nc3ccc(Cl)cc3[nH]2)c(C)n1C`, the “hERG current change (%, negative = inhibition) at 10uM” value was -7%. Then `CN(C(=O)CCCN1C(=O)c2cccc3cccc(c23)C1=O)c1ccccc1`, with -31.1%; and `Fc1ccccc1CSc1nnc2ccc(-c3ccncc3)nn12`, with -43.1%; and `COC(=O)C(CCSC)NC(=O)Cn1ncc2c(=O)oc3ccccc3c21` (stereo not drawn), with -2.24%. Then `COc1ccc(Nc2nc(Nc3ccc(OC)cc3)nc(-n3[nH]c(=O)c(C)c3C)n2)cc1`, with -10.1%; and `O=C(Nc1ccc2c(c1)OCO2)C1CC(c2ccccc2Cl)=NO1` (stereo not drawn), with -12.7%.

Take `N#C/C(=C\c1ccccc1OCc1ccc(C(=O)O)cc1)c1ccccc1`: the “hERG current change (%, negative = inhibition) at 10uM” value is 15.2%.

In the case of `COc1ccc(C(=O)NC2CC2)cc1OC1CCN(Cc2ccccc2)CC1`, the “hERG current change (%, negative = inhibition) at 10uM” value is -81.6%. In the case of `C=CCSc1nc2sc3c(c2c(=O)n1CC=C)CCc1ccccc1-3` it was 11.9%. Then `O=C(NCCN1CCOCC1)c1ccc(CS(=O)c2ccccc2Cl)o1` (stereo not drawn), with -0.923%; and `O=C1C2CCCN2C(=S)N1c1ccc(Cl)cc1` (stereo not drawn), with 8.29%; and `CC(C)(C)S(=O)(=O)Cc1nc(-c2ccc(Cl)c(Cl)c2)cs1`, with 11.6%. Then `CCOC(=O)N1CCc2c(sc(N)c2C#N)C1`, with 4.3%. For the molecule `Fc1ccc(OCCCCCCN2CCCC2)cc1`, the “hERG current change (%, negative = inhibition) at 10uM” value was -9.37%.

Take `Cc1ccccc1NC(=S)NCC1CCC(CNC(=S)Nc2ccccc2C)CC1` (stereo not drawn): the “hERG current change (%, negative = inhibition) at 10uM” value was determined as 10.6%. In the case of `O=C(CCNC(=O)c1ccc(Br)cc1)NCC1COc2ccccc2O1` (stereo not drawn) it was -5.67%; in that of `COc1cccc(NC(=O)CN(C)C(=O)CSC(=S)N2CCCC2)c1`, -3.01%; in that of `O=c1c2ccccc2n(Cc2ccc(F)cc2)c(=O)n1C1CCCC1`, 8.16%.

`CCn1nnnc1NCc1ccc(OCc2ccc(F)cc2Cl)c(OC)c1`: the “hERG current change (%, negative = inhibition) at 10uM” value is -10.8%. In the case of `CCOC(=O)c1cc(-c2ccc3c(c2)OCCO3)nc2c1c(C)nn2CCC#N` it was 3.85%; in that of `CCOc1ccc(-c2cc(C(=O)NN3CCN(C)CC3)c3cc(Cl)ccc3n2)cc1`, 22.5%; in that of `O=C(Cn1cnc2ccccc2c1=O)NCC1COc2ccccc2O1` (stereo not drawn), -5.88%. Then `CC(=O)c1ccc(Nc2cc(C)nc3c(C)cc(C)cc23)cc1`, with -45.7%; and `O=c1c2c(nc3cc(-c4ccc(Br)cc4)[nH]n13)CCCC2`, with -2.69%.

As for `CCCn1c(O)c(N=NC(=O)CNC(=O)Cc2ccc(OC)cc2)c2ccccc21`, the “hERG current change (%, negative = inhibition) at 10uM” value is 25.4%. In the case of `O=C(Cc1ccc(Cl)cc1)N1CCN(c2ccccc2)CC1` it was -12.2%; in that of `CCOC(=O)c1c(N2C(=O)C3C4C=CC(C4)C3C2=O)sc2c1CCC(C)C2` (stereo not drawn), 0.634%.

Take `COc1ccc(CCN2C(=S)N(c3ccccc3)C(=O)C2CC(=O)O)cc1OC` (stereo not drawn): the “hERG current change (%, negative = inhibition) at 10uM” value was determined as 18.5%. In the case of `CC1=C(C(=O)OC(C)C)C(c2cccc([N+](=O)[O-])c2)n2c(cc(=O)[nH]c2=S)N1` (stereo not drawn) it was 8.73%; in that of `CC(C)n1cc(/C=C2/SC(=O)N(CC(=O)N3CCCC3)C2=O)c2ccccc21`, 12.1%. In the case of `Cc1cccn2cc(CCNS(=O)(=O)c3ccc([N+](=O)[O-])cc3)nc12` it was -22.7%; in that of `Cc1cc(Cl)c(Cl)cc1S(=O)(=O)NCCCn1ccnc1`, -26.4%. For `COCC(O)CNc1ccccc1` (stereo not drawn), the “hERG current change (%, negative = inhibition) at 10uM” value was 16.1%. Then `CC(=O)O[C@]1(C(C)=O)CC[C@H]2[C@@H]3C=C(C)C4=CC(=O)CC[C@@H]4[C@H]3CC[C@@]21C`, with -41.1%. Then `CC1CC(C)(C)NC(=S)N1CCC(=O)NCc1ccc(F)cc1` (stereo not drawn), with 12.7%; and `CC(/C=C/c1ccco1)=N/NC(=O)CNc1ccccc1C`, with -7.19%. As to `Nc1nnc(-c2ccc(Cl)cc2Cl)s1`, the “hERG current change (%, negative = inhibition) at 10uM” value came out at 35.7%.

On to `COC(=O)C1=C(C)N(Cc2ccc3c(c2)OCO3)C(=O)C1`, for which the “hERG current change (%, negative = inhibition) at 10uM” value was 7.16%.

Regarding `Nc1cc(-c2ccc(Br)cc2)nc2cc(-c3ccccc3)nn12`, the “hERG current change (%, negative = inhibition) at 10uM” value turned out to be 12.6%.

In the case of `Oc1ccc(N=Cc2sc3ccccc3c2Cl)cc1`, the “hERG current change (%, negative = inhibition) at 10uM” value amounted to 1.33%.

`Cc1c(Br)c([N+](=O)[O-])nn1C(C)C(=O)NCc1ccco1` (stereo not drawn): the “hERG current change (%, negative = inhibition) at 10uM” value is listed as -2.31%. Then `O=C(O)/C=C/C(=O)Nc1cccnc1`, with 8.86%; and `CCOc1c(Cl)cc(/C=N/NC(N)=S)cc1OC`, with 6.36%. In the case of `Cc1nonc1NCn1nnc2ccccc21` it was 11.5%; in that of `COc1cc2c(cc1OC)CN(CC(=O)Nc1ccc(F)cc1)CC2`, -7.62%.

For the origin of these results see article PMC4336329 (PLoS ONE, 2015).
